# Several values for one entry are separate records, joined by “and”; a condition that tells them apart may be missing. Equal values may be shown once. The shares of active, inactive and inconclusive entries below differ from those in the screen. Potencies beside an inconclusive call are fits to weak or partial responses and may not hold up. Some structures have more than one record in an assay (separate samples or runs), and their calls can disagree. Activity calls are given as the source filed them. Unless noted, the call rests on the fitted dose curve; in most records, active means well fitted curve in the direction sought with a large enough effect in the repeat runs; inconclusive means weak or mixed curves; inactive means no such curve, though single readings can be large; an effect the other way counts as inactive or inconclusive.
# What was measured:
# [1] = qHTS assay for small molecule agonists of the antioxidant response element (ARE) signaling pathway (AID 743202; active means well fitted activation curve with a large enough effect in the signal ratio in the repeat runs, not every such curve was filed as active; inconclusive means weak or mixed curves, or effect the other way; inactive means no such curve, though single readings can be large or run the other way; the % refers to the signal ratio; on activation: on the % scale 0 is the no-effect control and ±100 the full control effect); settings: HepG2 ARE-bla reporter, beta-lactamase FRET, 16 h
# Procedure, shortened: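 An ARE-responsive beta-lactamase gene stably integrated in HepG2 cells serves as reporter. After 5 h plating and 16 h compound incubation at 37 C, fluorescence of the B/G FRET substrate was measured.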
# [2] = qHTS assay for small molecule agonists of the antioxidant response element (ARE) signaling pathway - cell viability counter screen (AID 743203; calls by dose curve; further: nearly all actives have a fitted effect of over 55% in size); settings: ARE-bla HepG2 viability, CellTiter-Glo luminescence, 16 h; viability change, negative = cytotoxic: at 73.3 µM (top of the series)
# Procedure, shortened: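 Compounds in DMSO were pinned onto ARE-bla HepG2 cells plated 5 hrs earlier at 2,000 cells/well. Sixteen hours later at 37C/5% CO2, CellTiter-Glo was added and luminescence measured after 30 min at room temperature.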
# [3] = qHTS assay for small molecule activators of the heat shock response signaling pathway - cell viability counter screen (AID 743209); settings: HSE-bla HeLa viability, CellTiter-Glo luminescence, 5 h; activity change, negative = cytotoxicity: at 62.6 µM (top of the series) unless noted; further: nearly all actives have a fitted effect of over 50% in size
# Procedure, shortened: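 Counter screen for cytotoxicity in HeLa HSE-bla reporter cells. Treatment was 5 h at 37 C; viability was detected by luminescent ATP assay (CellTiter-Glo) in the same wells as the beta-lactamase read.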
# [4] = qHTS assay for small molecule activators of the heat shock response signaling pathway (AID 743210; active means well fitted activation curve with a large enough effect in the signal ratio in the repeat runs, with a control signal flat, not every such curve was filed as active; inconclusive means weak or mixed curves; the % refers to the signal ratio); settings: HeLa HSE-bla reporter, beta-lactamase ratio, 5 h; activation: at 62.6 µM (top of the series) unless noted
# Procedure, shortened: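 In HSE-bla HeLa cells, 5 h compound incubation (37 C) precedes addition of LiveBLAzer B/G substrate; after 2.5 h at room temperature, fluorescence intensity indicates reporter induction.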
# [5] = qHTS assay to identify small molecule agonists of the peroxisome proliferator-activated receptor delta (PPARd) signaling pathway - cell viability counter screen (AID 743211); settings: PPARd-bla HEK293H viability, CellTiter-Glo luminescence, 17 h; activity change, negative = cytotoxicity: at 62.6 µM (top of the series); further: nearly all actives have a fitted effect of over 55% in size
# Procedure, shortened: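 Following 5 h plating at 37 C and 5% CO2, PPARd UAS-bla HEK293H cells took up test compounds for 17 h. Viability was quantified by luminescence 30 min after CellTiter-Glo addition at room temperature.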
# [6] = biological target: Peroxisome proliferator-activated receptor delta (Homo sapiens) (UniProt Q03181); test: qHTS assay to identify small molecule agonists of the peroxisome proliferator-activated receptor delta (PPARd) signaling pathway (AID 743212; calls by dose curve; on activation: on the % scale 0 is the no-effect control and ±100 the full control effect); settings: HEK293H PPARd-UAS-bla, beta-lactamase FRET ratio, 17 h; activation: at 62.6 µM (top of the series) unless noted
# Sequence of UniProt Q03181 (Q03181 whole entry, looked up): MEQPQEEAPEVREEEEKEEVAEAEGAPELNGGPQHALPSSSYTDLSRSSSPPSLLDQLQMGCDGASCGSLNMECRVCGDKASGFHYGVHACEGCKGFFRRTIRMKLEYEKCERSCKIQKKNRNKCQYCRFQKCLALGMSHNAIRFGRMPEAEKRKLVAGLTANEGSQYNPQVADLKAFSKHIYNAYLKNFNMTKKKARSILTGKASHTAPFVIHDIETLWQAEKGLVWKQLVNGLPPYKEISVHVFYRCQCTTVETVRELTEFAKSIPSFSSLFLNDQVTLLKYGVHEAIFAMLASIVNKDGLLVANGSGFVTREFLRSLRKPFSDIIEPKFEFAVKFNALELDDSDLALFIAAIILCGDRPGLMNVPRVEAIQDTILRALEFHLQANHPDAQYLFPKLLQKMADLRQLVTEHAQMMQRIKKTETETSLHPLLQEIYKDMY
# Procedure, shortened: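 HEK293H UAS-bla reporter cells, human PPARd system; compounds delivered in DMSO after 5 h plating, then at 37 C. Beta-lactamase FRET read, 2 h RT substrate step.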
# [7] = qHTS assay to identify small molecule antagonists of the peroxisome proliferator-activated receptor delta (PPARd) signaling pathway - cell viability counter screen (AID 743213); settings: PPARd-bla HEK293H viability, CellTiter-Glo luminescence, 17 h; viability change, negative = cytotoxic: at 62 µM (top of the series) unless noted; further: nearly all actives have a fitted effect of over 50% in size; on viability change, negative = cytotoxic: on the % scale 0 is the no-effect control and ±100 the full control effect
# Procedure, shortened: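 Agonist-stimulated (L165041, 300 nM final) HEK293H PPARd UAS-bla cells are exposed to compounds for 17 h at 37 C, and ATP-based luminescence (CellTiter-Glo) from the same wells reports cytotoxicity.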
# [8] = biological target: Peroxisome proliferator-activated receptor delta (Homo sapiens) (UniProt Q03181); test: qHTS assay to identify small molecule antagonists of the peroxisome proliferator-activated receptor delta (PPARd) signaling pathway (AID 743215; active means well fitted inhibition curve with a large enough effect in the signal ratio in the repeat runs, not every such curve was filed as active; inconclusive means weak or mixed curves, or effect the other way; inactive means no such curve, though single readings can be large or run the other way; the % refers to the signal ratio; on ratio activity, negative = inhibition: on the % scale 0 is the no-effect control and ±100 the full control effect); settings: HEK293H PPARd-UAS-bla, beta-lactamase FRET ratio, antagonist, 17 h; ratio activity, negative = inhibition: at 62 µM (top of the series) unless noted
# Procedure, shortened: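 With L165041 present at 300 nM final, compounds were incubated 17 h at 37 C on PPARd UAS-bla HEK293H cells. A FRET-based beta-lactamase substrate was then applied for 2 h at room temperature and fluorescence intensity recorded.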
# [9] = biological target: Bile acid receptor (Homo sapiens) (UniProt Q96RI1); test: qHTS assay to identify small molecule antagonists of the farnesoid-X-receptor (FXR) signaling pathway (AID 743217; active means well fitted inhibition curve with a large enough effect in the signal ratio in the repeat runs, not every such curve was filed as active; inconclusive means weak or mixed curves, or effect the other way; inactive means no such curve, though single readings can be large or run the other way; the % refers to the signal ratio); settings: HEK293T FXR-UAS-bla, beta-lactamase ratio, CDCA-stimulated, 16 h; activity change, negative = inhibition: at 62.6 µM (top of the series) unless noted
# Sequence of UniProt Q96RI1 (Q96RI1 whole entry, looked up): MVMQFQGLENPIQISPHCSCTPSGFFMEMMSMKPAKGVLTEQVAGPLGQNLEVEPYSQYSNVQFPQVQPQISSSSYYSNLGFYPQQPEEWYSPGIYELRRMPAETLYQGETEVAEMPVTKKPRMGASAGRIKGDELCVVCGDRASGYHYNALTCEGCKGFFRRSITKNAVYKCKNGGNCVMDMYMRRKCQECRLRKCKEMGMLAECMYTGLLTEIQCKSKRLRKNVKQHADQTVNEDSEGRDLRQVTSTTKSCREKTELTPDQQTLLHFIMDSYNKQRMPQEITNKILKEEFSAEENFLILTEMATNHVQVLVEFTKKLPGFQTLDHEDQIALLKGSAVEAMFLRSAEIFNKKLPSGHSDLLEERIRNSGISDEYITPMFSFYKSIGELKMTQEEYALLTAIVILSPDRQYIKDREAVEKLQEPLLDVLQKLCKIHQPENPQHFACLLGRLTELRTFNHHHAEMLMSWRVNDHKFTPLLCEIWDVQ
# Procedure, shortened: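 In this cell-based antagonist screen, inhibition of CDCA-driven (50 uM final) UAS-beta-lactamase expression in HEK 293T cells was measured by FRET fluorescence following 16 h compound exposure at 37 °C.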
# [10] = activation: at 73.3 µM (top of the series) unless noted
# Potency means the concentration at half of the fitted maximal effect; tags describe the fitted curve by direction and shape or compound fluorescence and quenching.
smiles,measurement,setting,value
S=C=Nc1cccc2ccccc12,Potency,[1]; [10],"inconclusive: 13.5 µM [falling, full curve]"
same,Potency,[2],active: 15.2 µM
same,Potency,[3],inconclusive: 27.3 µM [cytotoxic]
same,Potency,[4],inconclusive: 20.8 µM
same,Potency,[5],active: 24.3 µM
same,Potency,[6],inconclusive: 19.3 µM
same,"viability change, negative = cytotoxic",[7],inconclusive: -44.1% [cytotoxic]
same,Potency,[8],"inconclusive: 61 µM [inhibitor, single point]"
same,Potency,[9],inconclusive: 54.4 µM [single point]
Cc1cc(C(C)(C)c2cc(C)c(O)c(C)c2)cc(C)c1O,Potency,[1]; [10],"inconclusive: 66.3 µM [falling, single point]"
same,Potency,[2],"inconclusive: 66.3 µM [cytotoxic, single point]"
same,Potency,[3],"inconclusive: 47.4 µM [cytotoxic, single point]"
same,Potency,[5],active: 47.4 µM
same,"ratio activity, negative = inhibition",[8],inconclusive: -79.8% [inhibitor]
same,Potency,[9],inconclusive: 53.1 µM
CCCN(CCC)c1c([N+](=O)[O-])cc(S(N)(=O)=O)cc1[N+](=O)[O-],Potency,[1]; [10],"inconclusive: 19.3 µM [phenotype inactive, full curve]"
same,Potency,[2],active: 29.1 µM
same,Potency,[3],inconclusive: 24.3 µM [cytotoxic]
same,Potency,[4],inconclusive: 46.1 µM [cytotoxic]
same,Potency,[7],active: 37 µM
same,Potency,[8],active: 58.6 µM
same,Potency,[9],active: 58.6 µM
CC(=O)[O][Sn]([c]1ccccc1)([c]1ccccc1)[c]1ccccc1,Potency,[1]; [10],"inconclusive: 0.243 µM [falling, full curve]"
same,Potency,[2],active: 0.0344 µM
same,Potency,[3],active: 15.5 µM
same,Potency,[4],inconclusive: 15.5 µM
same,Potency,[5],active: 0.0977 µM
same,Potency,[6],"inconclusive: 4.36 µM [falling, full curve]"
same,Potency,[7],active: 0.275 µM
same,Potency,[8],inconclusive: 0.0776 µM [full curve]
Nc1ccccc1C(=O)OCCc1ccccc1,activation,[1]; at 73.3 µM (top of the series),inconclusive: -3.99%
same,activation,[1]; at 94.8 µM (top of the series),inconclusive: 21.3%
same,Potency,[3],"inconclusive: 61.9 µM [cytotoxic, single point]"
same,Potency,[4],"inconclusive: 55.2 µM [falling, single point]"
same,Potency,[7],"inconclusive: 1.1 µM [cytotoxic, single point]"
COC(=O)NC(=S)Nc1ccccc1NC(=S)NC(=O)OC,Potency,[1]; [10],"inconclusive: 68.6 µM [rising, single point]"
same,activation,[1]; [10],inconclusive: -9.84%
same,Potency,[6],inactive
same,Potency,[7],"inconclusive: 0.11 µM [cytotoxic, partial curve, poor fit]"
O=C(O)c1ccc(=O)[nH]c1,Potency,[1]; [10],inactive
same,Potency,[2],inactive
same,Potency,[4],inactive
Cc1ccc(N=C=O)cc1N=C=O,activation,[1]; [10],inconclusive: 35.8%
same,activation,[1]; at 73.3 µM (top of the series),inactive: 7.98%
same,activation,[1]; at 94.8 µM (top of the series),inactive: 2.75%
same,Potency,[7],"inconclusive: 43.5 µM [cytotoxic, partial curve, poor fit]"
O=[N+]([O-])c1cc(C(F)(F)F)c(Cl)c([N+](=O)[O-])c1Cl,Potency,[1]; [10],"inconclusive: 5.45 µM [falling, full curve]"
same,Potency,[2],active: 1.72 µM
same,Potency,[4],inconclusive: 17.4 µM
same,Potency,[6],"inconclusive: 4.9 µM [rising, full curve]"
same,Potency,[7],active: 7.76 µM
same,Potency,[8],"inconclusive: 1.74 µM [rising, full curve, poor fit]"
CN(C)S(=O)(=O)N(SC(F)(Cl)Cl)c1ccccc1,Potency,[1]; [10],"inconclusive: 21.7 µM [falling, full curve]"
same,Potency,[2],active: 8.63 µM
same,Potency,[3],"inconclusive: 1.74 µM [cytotoxic, full curve, poor fit]"
same,Potency,[4],inconclusive: 20.3 µM
same,Potency,[5],active: 24.5 µM
same,Potency,[6],"inconclusive: 6.16 µM [rising, partial curve]"
same,Potency,[8],"inconclusive: 2.19 µM [rising, full curve]"
same,Potency,[9],"inconclusive: 12.3 µM [rising, partial curve]"
CC(C)N1C(=O)N(c2ccccc2)CSC1=NC(C)(C)C,activation,[1]; [10],inconclusive: 23.6%
same,Potency,[2],"inconclusive: 68.6 µM [cytotoxic, single point]"
same,Potency,[3],inconclusive: 54.9 µM [cytotoxic]
same,Potency,[4],inconclusive: 61.6 µM
same,Potency,[5],"inconclusive: 54.9 µM [cytotoxic, single point]"
same,Potency,[7],"inconclusive: 61.6 µM [cytotoxic, single point]"
CCCCCCCCCCCCOS(=O)(=O)O,activation,[1]; [10],inconclusive: 25.4%
same,Potency,[2],"inconclusive: 75.9 µM [cytotoxic, single point] and inconclusive: 77 µM [cytotoxic, single point]"
same,"activity change, negative = cytotoxicity",[3],inconclusive: -38.4% [cytotoxic]
same,Potency,[5],"inconclusive: 54.2 µM [cytotoxic, single point]"
same,Potency,[7],inconclusive: 54.9 µM [cytotoxic] [middle of 4 runs]
